Data as given in the RNAGym collection of RNA variant scans (doi:10.1101/gad.245936.114).
Variants at the background level are over-represented here.

B1: tRNA (parent)
chain: CUCUCGGUAGCCAAGUUGGUUUAAGGCGCAAGACUUUAAUUUAUCACUACGAAAUCUUGAGAUCGGGCGUUCGACUCGCCCCCGGGAGAUUUUUUCCUCGAGCAA

Variants of: B1
Assay: nonsense suppression (GFP-seq) (ratio to wild type); higher = more function; SUP4oc tRNA, yeast GFP reporter sort-seq
How it was run: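 Yeast were grown in raffinose/galactose medium with 80 mg/L adenine, each strain bearing a genome-integrated ochre-suppressor tRNA variant from a ~3% random-mutation library, a galactose-driven GFP ochre reporter, and RFP. After sorting into GFP/RFP bins, every bin was sequenced on an Illumina platform at phred ≥30. The GFPSEQ value, a measure of nonsense suppression, is the weighted bin median GFP/RFP relative to the unmutated parent tRNA, using each variant's estimated cell share per bin as the weight. Only variants with ≥100 reads and ≥30 cells were included.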

| Variant | nonsense suppression |
| --- | --- |
| G32U A62G | ≤ 0.026 |
| A31U U63C | ≤ 0.026 |
| A33G G65A A87C | ≤ 0.026 |
| A33G G69A C72U | ≤ 0.026 |
| C34A U35C G69A U71C | ≤ 0.026 |
| C34G A74G | ≤ 0.026 |
| A33U C68U | ≤ 0.026 |
| C34G C79G | ≤ 0.026 |
| A33G A54U G67U U71C G73U | ≤ 0.026 |
| A33G G86U | ≤ 0.026 |
| G32A U57G U70C | ≤ 0.026 |
| C34U C72U | ≤ 0.026 |
| C34A A60G U70C | ≤ 0.026 |
| C34A U35A | ≤ 0.026 |
| C34A U35C | ≤ 0.026 |
| A33G C64A | ≤ 0.026 |
| A33U U58A G66A G69A C82U | ≤ 0.026 |
| A33U U55G U63C | ≤ 0.026 |
| G32U C64A C81G | ≤ 0.026 |
| G32C G65U G66U C80U | ≤ 0.026 |
| G32U A89U | ≤ 0.026 |
| A33G A60G G67C U71C C72U | ≤ 0.026 |
| A31U U55A G67A A74G | ≤ 0.026 |
| G32C C56A | ≤ 0.026 |

| Variant | nonsense suppression |
| --- | --- |
| A33G G69C U76G | ≤ 0.026 |
| G32U A33U G61A G69A | ≤ 0.026 |
| G32A C34U A60C G84A A87U | ≤ 0.026 |
| C34U G59C U71A G84C | ≤ 0.026 |
| A33G A54C U57G | ≤ 0.026 |
| A33U U76C | ≤ 0.026 |
| G32U U55G U71G G86U | ≤ 0.026 |
| G32U C81G | ≤ 0.026 |
| C34G G67C A87U | ≤ 0.026 |
| A31U U57A | 0.963 |
| G32U G66A | ≤ 0.026 |
| G32U C34A C56A | ≤ 0.026 |
| A33C U71G C80G G88C | ≤ 0.026 |
| A33G C64G U76A | ≤ 0.026 |
| G32A G65C | ≤ 0.026 |
| A31U U55C | 0.0547 |
| A33C G86U | ≤ 0.026 |
| C34G C68G | ≤ 0.026 |
| A33U U55C A74G | ≤ 0.026 |
| G32U U70A C75A | ≤ 0.026 |
| C34A C83U | ≤ 0.026 |
| C34A A87G | ≤ 0.026 |
| C34A A87C | ≤ 0.026 |
| C34A G61C A87U | ≤ 0.026 |

| Variant | nonsense suppression |
| --- | --- |
| A33U A54C A60C | ≤ 0.026 |
| G32C U35A | ≤ 0.026 |
| A33G U55C G85C A89C | ≤ 0.026 |
| G32C C72G | ≤ 0.026 |
| A33G U76C | 0.0419 |
| A33G U76G | ≤ 0.026 |
| A33G A87C | ≤ 0.026 |
| A33G G65U G86C | ≤ 0.026 |
| C34U A60G G78A | ≤ 0.026 |
| G32U G86A | ≤ 0.026 |
| C34A G85C | ≤ 0.026 |
| C34A C77G | ≤ 0.026 |
| C34U A54G G61U U70G U76A G84A | ≤ 0.026 |
| C34G C75A | ≤ 0.026 |
| C34U A54U U76C C80A | ≤ 0.026 |
| C34A U63A C82G | ≤ 0.026 |
| G32A C79G C82G | ≤ 0.026 |
| C34G A54G | ≤ 0.026 |
| A33U C72G G88U | ≤ 0.026 |
| C34G U71C | ≤ 0.026 |
| G32U U58G | ≤ 0.026 |
| C34U C82A | ≤ 0.026 |
| G32A C79A G88A | ≤ 0.026 |
| A33U G66A | ≤ 0.026 |

| Variant | nonsense suppression |
| --- | --- |
| C34G U57C U71A | ≤ 0.026 |
| A33G A87U G88U | ≤ 0.026 |
| G32U G65U | ≤ 0.026 |
| A33G U57A | ≤ 0.026 |
| A33G A74C | ≤ 0.026 |
| G32A U57G G61C | ≤ 0.026 |
| G32A A33G | ≤ 0.026 |
| G32C U55A G66U | ≤ 0.026 |
| G32U C56G | 0.207 |
| G32U U71A | ≤ 0.026 |
| G32U U55A | ≤ 0.026 |
| G32A A60C U70G C83U | ≤ 0.026 |
| A33G A74C C83A | ≤ 0.026 |
| A33G U63G U70A | ≤ 0.026 |
| C34G U71A G78C C79G C80G | ≤ 0.026 |
| A33U G69U | ≤ 0.026 |
| A33C A74G | ≤ 0.026 |
| A31U U76A | 0.0413 |
| C34U C79U | ≤ 0.026 |
| A31U U70C | ≤ 0.026 |
| A31U U70G | ≤ 0.026 |
| A33G U63G G66U C72A | ≤ 0.026 |
| A33C G67U C80G | ≤ 0.026 |
| C34G C56G U57C G61C | ≤ 0.026 |

| Variant | nonsense suppression |
| --- | --- |
| A33C C34U C75U | ≤ 0.026 |
| A33C C34U C75G | ≤ 0.026 |
| C34A G66C | ≤ 0.026 |
| C34U A74C C79A | ≤ 0.026 |
| A33U U35A | ≤ 0.026 |
| G32A U70A | ≤ 0.026 |
| A33G G78U | ≤ 0.026 |
| A33C U63C G78U A87C | ≤ 0.026 |
| C34A G67A A87U | ≤ 0.026 |
| A33G U55A U70C C80G | ≤ 0.026 |
| G32A G85C | ≤ 0.026 |
| C34A A60U U63C A87G | ≤ 0.026 |
| G32U G69A C75U C80A | ≤ 0.026 |
| C34U G61A | 0.0297 |
| A33G A54G A62U U63C U70G G73A | ≤ 0.026 |
| G32U C64U A74C | ≤ 0.026 |
| C34A U70C C81G | ≤ 0.026 |
| A33C G61A A62G G73C | ≤ 0.026 |
| C34A G61C U63C A74U | ≤ 0.026 |
| C34U A54C G67U | ≤ 0.026 |
| C34U C77A C82A | ≤ 0.026 |
| C34G A60C C80A | ≤ 0.026 |
| C34A G78U | ≤ 0.026 |
| C34A G78C | ≤ 0.026 |

| Variant | nonsense suppression |
| --- | --- |
| G32U A74G C81A A89U | ≤ 0.026 |
| G32C C79A | ≤ 0.026 |
| G32C C79U | ≤ 0.026 |
| G32A U57G | ≤ 0.026 |
| A33G G73C C81A | ≤ 0.026 |
| G32C U63C | ≤ 0.026 |
| A33U U57A | ≤ 0.026 |
| A33C G78A | ≤ 0.026 |
| C34A | ≤ 0.026 |
| C34U | ≤ 0.026 |
| C34G | ≤ 0.026 |
| G32U G88U | ≤ 0.026 |
| A33U U55G G61A | ≤ 0.026 |
| C34A U57C | ≤ 0.026 |
| C34A U57G | ≤ 0.026 |
| C34A G61C A74G | ≤ 0.026 |
| A33G A62C U63C U70C C79G | ≤ 0.026 |
| G32A A62C | ≤ 0.026 |
| C34G U57A | ≤ 0.026 |
| A33G C56U | ≤ 0.026 |
| A33G C56G | ≤ 0.026 |
| A33C C64U C72U C79A | ≤ 0.026 |
| A33G G73U | ≤ 0.026 |
| C34A G67C G73A | ≤ 0.026 |

| Variant | nonsense suppression |
| --- | --- |
| C34G U70A | ≤ 0.026 |
| C34G U70G | ≤ 0.026 |
| C34G G69U U71A A74C | ≤ 0.026 |
| C34A C72G | ≤ 0.026 |
| C34A U70G | ≤ 0.026 |
| C34A U70A | ≤ 0.026 |
| C34U G59A C83G | ≤ 0.026 |
| A33U C80G C81A | ≤ 0.026 |
| A33C A54U U63A | ≤ 0.026 |
| C34G G78U | ≤ 0.026 |
| A33G U57A U76C | ≤ 0.026 |
| G32C G67U | ≤ 0.026 |
| G32C G67A | ≤ 0.026 |
| A33C C81A | ≤ 0.026 |
| C34U C81A C83G G84U | ≤ 0.026 |
| G32A G88U | ≤ 0.026 |
| G32A G88C | ≤ 0.026 |
| G32A G61A A74U G78A | ≤ 0.026 |
| G32A A54U C81A | ≤ 0.026 |
| A31U U71C C72G | ≤ 0.026 |
| A33U C77A C80A | ≤ 0.026 |
| G32U U71C G85U | ≤ 0.026 |
| C34G U71G A87U | ≤ 0.026 |
